Among all 410,000 compounds or so, about 6,400 (1.6%) were called active. The shares of active, inactive and inconclusive entries below differ from those in the screen. Calls follow the shape of the dose curve; as a rule, active = well fitted inhibition curve with a large enough effect; inconclusive = small, poorly fitted or top-dose-only effect; inactive = no such curve, though single readings can be large or run the other way. Potencies of inconclusive entries are left out as doubtful fits.
What follows are compounds tested against Glucagon-like peptide 1 receptor (Homo sapiens) (UniProt P43220) (assay: qHTS of GLP-1 Receptor Inverse Agonists (Inhibition Mode)). Conditions: HEK293 GLP-1R CRE-luciferase, luminescence, 24 h, GLP-1R form is constitutively active; activity change, negative = inhibition: at 38.3 µM (top of the series) unless noted.
Procedure, shortened: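 Inverse agonism was detected as reduced cAMP-driven luciferase luminescence after 24 h compound treatment. The cells were HEK293 clones expressing constitutively active human GLP-1R with the reporter. Reporter-only and GPR119 cell lines served as counterscreen controls.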
% is scaled to controls: 0 for no effect and ±100 for the full control effect; potency is read from the fitted curve at half-maximal effect; tags tell the direction and shape of the fitted curve.
Also: nearly all actives have a fitted effect of over 55% in size.

UniProt P43220, sequence (P43220 whole entry, looked up): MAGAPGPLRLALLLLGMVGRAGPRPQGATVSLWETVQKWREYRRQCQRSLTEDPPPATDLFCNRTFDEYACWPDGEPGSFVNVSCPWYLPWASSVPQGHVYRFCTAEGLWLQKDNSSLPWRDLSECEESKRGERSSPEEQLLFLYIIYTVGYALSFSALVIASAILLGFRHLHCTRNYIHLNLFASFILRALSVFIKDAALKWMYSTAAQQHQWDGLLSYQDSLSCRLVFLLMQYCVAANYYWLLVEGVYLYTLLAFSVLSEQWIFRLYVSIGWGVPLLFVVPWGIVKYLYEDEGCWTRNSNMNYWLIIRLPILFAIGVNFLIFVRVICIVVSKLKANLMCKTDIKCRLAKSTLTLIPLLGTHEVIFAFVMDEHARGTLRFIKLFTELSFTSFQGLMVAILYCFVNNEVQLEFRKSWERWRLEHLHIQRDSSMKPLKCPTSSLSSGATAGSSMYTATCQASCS

Structure (SMILES) | Potency | activity change, negative = inhibition
O=C(CSc1ccc(F)cc1)Nc1cccc(S(=O)(=O)N2CCOCC2)c1 | inconclusive [inhibitor, full curve] | –
O=c1sc(/C=N/Nc2ccccc2)c(Cl)n1Cc1ccccc1 | inconclusive [inhibitor, partial curve] | –
CCCc1ccc(C2Sc3ccccc3NC3=C2C(=O)c2ccccc23)cc1 (stereo unspecified) | inconclusive [inhibitor, partial curve, poor fit] | –
COc1ccc(N=C2SC(CC(=O)Nc3ccccc3)C(=O)N2Cc2ccco2)cc1 (stereo unspecified) | inconclusive [inhibitor, full curve, poor fit] | –
Cc1ccc(C2=NS(=O)(=O)N(C)C(C(=O)Nc3cc(C)n(CC(=O)N4CCCCC4)n3)=C2)cc1 | – | inactive: 18.3%
COc1ccc(NS(=O)(=O)c2ccc(Cl)c(NC(=O)c3ccccc3F)c2)cc1 | inconclusive [inhibitor, single point] | –
Cc1ccc(-c2noc(CCC(=O)N3CCN(c4cccc(C(F)(F)F)c4)CC3)n2)cc1 | inconclusive [inhibitor, partial curve, poor fit] | –
O=C(N/N=C/c1c[nH]c2ccccc12)c1ccc([N+](=O)[O-])cc1Cl | inconclusive [inhibitor, single point] | –
CC1CC2=C(NC(=S)NC2c2ccccc2F)/C(=C/c2ccccc2F)C1 (stereo unspecified) | inconclusive [inhibitor, partial curve, poor fit] | –
Cc1ccc(SCC(=O)Nc2cccc(C(=O)NC(C)(C)C)c2)cc1 | inconclusive [inhibitor, single point] | –
Clc1cccc(-c2nc(NCC3CCCO3)c3ccccc3n2)c1 (stereo unspecified) | inconclusive [inhibitor, single point] | –
CCOC(=O)C1=C(C)N=c2s/c(=C\c3ccc(OC(C)=O)c(OCC)c3)c(=O)n2C1/C=C/c1ccccc1 (stereo unspecified) | inconclusive [inhibitor, partial curve, poor fit] | –
Cc1ccc(C(=O)N/C(=C/c2ccc(Cl)cc2)C(=O)N2CCOCC2)cc1 | inconclusive [inhibitor, partial curve, poor fit] | –
OC(CN1CCCCC1)Cn1c2ccc(Cl)cc2c2cc(Cl)ccc21 (stereo unspecified) | inconclusive [inhibitor, partial curve, poor fit] | –
CCc1ccc2[nH]c(=O)c(CN(CCCN3CCOCC3)C(=O)Nc3ccc(Cl)cc3)cc2c1 | inconclusive [inhibitor, single point] | –
Cc1ccc(S(=O)(=O)N(CC(=O)Nc2cccc([N+](=O)[O-])c2)Cc2ccc(Cl)cc2)cc1 | inconclusive [inhibitor, partial curve] | –

Reference: PubChem BioAssay AID624417 (National Center for Advancing Translational Sciences (NCATS), 2012)
